PubChem BioAssay (Tox21)
Values joined by “and” are separate entries in the source; they are usually repeats but may differ in a detail not shown here. Identical values can stand only once. The inconclusive results got no clear call from the source; some entries with a clear call stand among them for comparison. A potency beside an inconclusive call is a rough fit, not a confirmed value. Active and inactive are the calls of the source. Unless noted, calls come from the whole dose curve; as a rule, active = well fitted curve in the direction sought with a large enough effect in the repeat runs; inconclusive = weak or mixed curves; inactive = no such curve, though single readings can be large; an effect the other way counts as inactive or inconclusive.

Target: Aryl hydrocarbon receptor (Homo sapiens) (UniProt P35869)
Assay: qHTS assay to identify small molecule that activate the aryl hydrocarbon receptor (AhR) signaling pathway (AID 743085); note: nearly all actives have a fitted effect of over 15% in size;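 for activation: HG2L7.5c1 human HepG2 liver cells with stably integrated DRE-driven firefly reporter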
Settings: HepG2 AhR-luc (HG2L7.5c1), luciferase, 24 h; series mostly up to 70.3 µM; activation: at the top concentration
How it was run: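 Stably transfected human liver carcinoma cells (HG2L7.5c1; 20 DRE-firefly luciferase) were incubated 5 h, dosed, and kept 24 h at 37C. Agonism was scored from increased luciferase luminescence.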
% is set by controls: 0 for no effect and ±100 for the full control effect; potency is the fitted concentration of half-maximal effect; tags give direction and shape of the fitted curve or compound fluorescence and quenching.

Chain of UniProt P35869 (P35869 whole entry, looked up): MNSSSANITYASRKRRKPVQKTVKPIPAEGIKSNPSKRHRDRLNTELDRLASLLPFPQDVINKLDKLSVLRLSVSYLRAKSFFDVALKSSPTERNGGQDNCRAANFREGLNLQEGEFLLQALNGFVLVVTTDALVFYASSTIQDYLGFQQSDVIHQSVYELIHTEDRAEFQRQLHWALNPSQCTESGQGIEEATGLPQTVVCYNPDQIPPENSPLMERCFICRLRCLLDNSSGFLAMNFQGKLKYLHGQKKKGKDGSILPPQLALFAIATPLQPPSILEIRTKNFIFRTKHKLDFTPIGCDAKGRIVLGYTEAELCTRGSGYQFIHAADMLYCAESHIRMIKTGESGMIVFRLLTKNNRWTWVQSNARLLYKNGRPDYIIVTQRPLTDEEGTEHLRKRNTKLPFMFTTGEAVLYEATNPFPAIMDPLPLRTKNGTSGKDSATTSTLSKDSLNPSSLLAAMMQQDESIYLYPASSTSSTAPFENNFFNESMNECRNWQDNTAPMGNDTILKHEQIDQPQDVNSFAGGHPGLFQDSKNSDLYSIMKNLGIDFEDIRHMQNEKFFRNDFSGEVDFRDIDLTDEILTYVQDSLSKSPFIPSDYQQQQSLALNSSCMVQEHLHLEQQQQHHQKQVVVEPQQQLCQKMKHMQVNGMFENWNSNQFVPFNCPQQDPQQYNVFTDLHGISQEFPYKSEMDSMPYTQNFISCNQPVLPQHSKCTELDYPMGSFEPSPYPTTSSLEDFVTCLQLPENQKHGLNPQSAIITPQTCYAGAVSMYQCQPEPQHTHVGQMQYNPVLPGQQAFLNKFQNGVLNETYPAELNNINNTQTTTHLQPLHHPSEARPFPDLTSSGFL

Structure (SMILES)	Potency	activation
CCOC(=O)C1(c2ccccc2)CCN(CCC(C#N)(c2ccccc2)c2ccccc2)CC1	inconclusive: 6.68 µM [activator, single point]	
CCCCCCCCn1cc[n+](C)c1	inactive	
CCCCCCCCCCOC(=O)c1ccccc1C(=O)OCCCCCCCCCC		inactive: -1.16%
CO/C=C(/C(=O)OC)c1ccccc1Oc1cc(Oc2ccccc2C#N)ncn1	inconclusive: 7.7 µM [activator, full curve, poor fit]	
Oc1c(Br)c(Br)c(Br)c(Br)c1Br	inconclusive: 24.5 µM [activator, partial curve, poor fit]	
O=C(CCl)Nc1ccccc1	inconclusive: 61.1 µM [activator, partial curve, poor fit]	
C=CC(=O)NCNC(=O)C=C	inconclusive: 77 µM [activator, single point]	
COP(=S)(OC)Oc1cc(Cl)c(Br)cc1Cl	inconclusive: 24.3 µM [activator, partial curve]	
IC(I)=C(I)I	inconclusive: 27.3 µM [activator, partial curve, poor fit]	

Tested on: not listed separately
Assay: qHTS assay to identify small molecule that activate the aryl hydrocarbon receptor (AhR) signaling pathway - cell viability counter screen (AID 743086); note: nearly all actives have a fitted effect of over 45% in size;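 for viability change, negative = cytotoxic: HepG2 liver cells carrying the AhR DRE luciferase reporter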
Settings: HepG2-AhR-luc viability, CellTiter-Fluor, 24 h; series mostly up to 70.3 µM; viability change, negative = cytotoxic: at the top concentration
How it was run: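 Cytotoxicity counter screen: CellTiter-Fluor signal (30 min, 37 C) in 4000 HepG2 cells/well carrying the DRE-luciferase reporter, following 24 h compound exposure at 37 C.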

Structure (SMILES)	Potency
c1cc2ccc3cccc4ccc(c1)c2c34	inconclusive: 68.6 µM [rising, single point]
Nc1c(Cl)cc([N+](=O)[O-])cc1Cl	inactive
CO/C=C(/C(=O)OC)c1ccccc1Oc1cc(Oc2ccccc2C#N)ncn1	active: 37.6 µM
CCCC[n+]1ccc(C)cc1	inconclusive: 5.45 µM [falling, partial curve, poor fit]
CC(C)N(C(=O)CCl)c1ccccc1	active: 38.6 µM and active: 68.6 µM
Cc1cc(C(C)(C)c2ccc(O)c(C)c2)ccc1O	inconclusive: 73.3 µM [falling, single point]
C/C(=C\c1ccccc1)[N+](=O)[O-]	inconclusive: 68.6 µM [falling, single point]
COP(=S)(OC)Oc1cc(Cl)c(Br)cc1Cl	inconclusive: 1.72 µM [rising, partial curve, poor fit]
CCCC1COC(Cn2cncn2)(c2ccc(Cl)cc2Cl)O1 (stereo not drawn)	inconclusive: 48.6 µM [falling, partial curve, poor fit]
IC(I)=C(I)I	active: 43.3 µM

Target: Peroxisome proliferator-activated receptor gamma (Homo sapiens) (UniProt P37231)
Assay: qHTS assay to identify small molecule agonists of the peroxisome proliferator-activated receptor gamma (PPARg) signaling pathway (AID 743094; active = well fitted activation curve with a large enough effect in the signal ratio in the repeat runs, not every such curve was filed as active; inconclusive = weak or mixed curves, or effect the other way; inactive = no such curve, though single readings can be large or run the other way; the % refers to the signal ratio)
Settings: HEK293H PPARg-UAS-bla, beta-lactamase FRET ratio, 17 h; activation: at 57 µM (top of the series) unless noted
How it was run: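 Cells from the PPARg UAS-bla HEK293H line are plated and incubated 5 h at 37C. Compounds in DMSO are pinned in and left 17 h at 37C. LiveBLAzer B/G substrate is then added for 1 h at room temperature before fluorescence is measured.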

Chain of UniProt P37231 (P37231 whole entry, looked up): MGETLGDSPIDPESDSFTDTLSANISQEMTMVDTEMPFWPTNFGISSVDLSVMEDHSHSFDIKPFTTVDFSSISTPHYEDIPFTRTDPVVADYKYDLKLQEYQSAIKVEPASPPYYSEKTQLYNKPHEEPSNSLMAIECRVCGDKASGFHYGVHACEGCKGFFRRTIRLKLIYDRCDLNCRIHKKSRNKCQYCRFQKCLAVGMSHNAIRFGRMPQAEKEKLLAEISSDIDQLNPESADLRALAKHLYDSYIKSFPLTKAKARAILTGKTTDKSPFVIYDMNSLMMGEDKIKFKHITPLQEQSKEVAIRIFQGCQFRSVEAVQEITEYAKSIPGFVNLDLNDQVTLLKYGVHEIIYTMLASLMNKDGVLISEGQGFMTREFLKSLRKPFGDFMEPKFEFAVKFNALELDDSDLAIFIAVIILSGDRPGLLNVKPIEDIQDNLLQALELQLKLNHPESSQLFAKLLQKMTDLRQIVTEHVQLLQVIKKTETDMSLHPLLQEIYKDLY

Structure (SMILES)	Potency	activation
CCOC(=O)C1(c2ccccc2)CCN(CCC(C#N)(c2ccccc2)c2ccccc2)CC1	inconclusive: 26.8 µM [activator, single point] and inconclusive: 67.4 µM [activator, single point]	
c1cc2ccc3cccc4ccc(c1)c2c34		inconclusive: 2.05% [at 78.9 µM]
CCCCCCCCCCOC(=O)c1ccccc1C(=O)OCCCCCCCCCC		inconclusive: 16.6%
Nc1c(Cl)cc([N+](=O)[O-])cc1Cl	inactive	
CO/C=C(/C(=O)OC)c1ccccc1Oc1cc(Oc2ccccc2C#N)ncn1	inconclusive: 20.8 µM [partial curve, poor fit]	
CC(C)N(C(=O)CCl)c1ccccc1		inconclusive: -6.3%
Oc1c(Br)c(Br)c(Br)c(Br)c1Br	inconclusive: 0.696 µM [inhibitor, full curve, poor fit]	
CC1(c2ccc(Oc3ccccc3)cc2)OC(=O)N(Nc2ccccc2)C1=O (stereo not drawn)		inconclusive: 18.3% [at 78.9 µM]
Cc1cc(C(C)(C)c2ccc(O)c(C)c2)ccc1O		inconclusive: -11.2%
O=C(CCl)Nc1ccccc1	inconclusive: 54.9 µM [rising, partial curve, poor fit]	
Oc1cc(Cl)c(Cl)c(Cl)c1Cl	inconclusive: 21.4 µM [rising, partial curve]	
CC(Oc1ccc(Oc2ncc(C(F)(F)F)cc2Cl)cc1)C(=O)O (stereo not drawn)		inconclusive: 0.0261%
C/C(=C\c1ccccc1)[N+](=O)[O-]	inconclusive: 34.7 µM [fluorescent, partial curve]	
C=CC(=O)NCNC(=O)C=C	inconclusive: 21.9 µM	
CCCC1COC(Cn2cncn2)(c2ccc(Cl)cc2Cl)O1 (stereo not drawn)		inconclusive: -9.75% [at 78.9 µM]
O=[N+]([O-])c1ccc2ccc3cccc4ccc1c2c34		inconclusive: 0.179%
O=C(NC(=O)c1c(F)cccc1F)Nc1cc(Cl)c(Oc2ncc(C(F)(F)F)cc2Cl)c(Cl)c1		inconclusive: -10.2%
IC(I)=C(I)I	inconclusive: 54.9 µM	
COP(=O)(OC)O/C(=C/Cl)c1cc(Cl)c(Cl)cc1Cl	inconclusive: 5.81 µM [inhibitor, full curve]	
